# Reference: paper PMC12136788
# Some of the results follow.
# T1: UNK ZnF1-3 (human, UniProt Q9C0B0 31-174)
# T1 sequence: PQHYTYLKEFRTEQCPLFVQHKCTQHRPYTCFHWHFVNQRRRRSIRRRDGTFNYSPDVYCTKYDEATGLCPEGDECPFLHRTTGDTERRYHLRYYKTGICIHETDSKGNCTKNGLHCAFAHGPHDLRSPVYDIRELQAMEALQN
# B1: chr4:140556289:140556290:+_ENSMUSG00000036622_ENSMUST00000037055|mus_mus|mus_mus_mus_hu_False|18_48 (ssRNA)
# RNA: GGGAGUUCUACAGUCCGACGAUCGAUGGAGCUCACCAGGCCCCCUUUUGCCGUGCAGAACCCUGUGCGGGUCACCACUGCCAGGACACGGGGUCCCACAUAGGCCCGGGCCUGCAAAAUGAGGGUGCCGCAGAAGAGUGUGUGCAACAGAGGAUUGAGCAUCA
# B2: chr14:45963330:45963331:+_ENSMUSG00000021832_ENSMUST00000022380|perfect_dup|motif|central (ssRNA)
# RNA: GGGAGUUCUACAGUCCGACGAUCGAUUUUCAGUAUGUCUAAUCUUGCUUGUUCAUUUGGCAAAUCAAUAUGUAUUUUUCGGUCGGAUCUUCCUGGACGCAGCAAAGCAGGAUCCAGUGUAUCUGGUCUGUUUGUAGCCAUGAUCAACAGAGGAUUGAGCAUCA
# B3: chr11:77340908:77340909:-_ENSG00000074201_ENST00000525064|hu_hu|hu_hu_hu_mus_True|98_108 (ssRNA)
# RNA: GGGAGUUCUACAGUCCGACGAUCGUUUCGGUCCCUGGAUAAUGCAUGUAAACUAAUGGUGGGGUAUUCCAGUGAGAAUCCUAAUCCCGAACCAUCUAACCAGGACAGGCGGCUCUCCGCGAUGUAAAGCGUGCCGGUGCCGAGCAACAGAGGAUUGAGCAUCA
# B4: chr2:179515052:179515053:+_ENSMUSG00000000305_ENSMUST00000000314|mus_hu|mus_mus_mus_hu_False|68_98 (ssRNA)
# RNA: GGGAGUUCUACAGUCCGACGAUCGCUGUCCCAUGCAGUGACGGUAAACGCCACCUGCUCGGAGGGGAUCUUCAACUCCCGGGUGGCGAAGACUGUCCCAUCUGCCCCAACUUUGAAGUCCAUGCUGUUGGUCUCAUAUUGUGUCAACAGAGGAUUGAGCAUCA
# B5: chr10:89103549:89103550:-_ENSMUSG00000069539_ENSMUST00000105294|mus_hu|FALSE|FALSE (ssRNA)
# RNA: GGGAGUUCUACAGUCCGACGAUCAUCUGUGGGUCUUUGUUGGGUCUGCUUUGCACCAGCAGGAGGAACACUCAAAGCAUUGAAGUUUGGCAAAGUGGGAGGUGUUCCCAGAGUCAUCUUGGUCACUCCAACUGUGCUUGGACUCAACAGAGGAUUGAGCAUCA
# B6: chr7:151048522:151048523:+_ENSG00000013374_ENST00000566856|hu_mus|hu_hu_hu_mus_True|18_18 (ssRNA)
# RNA: GGGAGUUCUACAGUCCGACGAUCCUGUUUCUUAUUUAUUACGAUCUUGAUGUAAUUUUCUUGAAAUCCGAAAGUUUCAGCUAUUUGACACCUCAGGUCUCUACCAGUGACAUGCAAUCGGGUCUCCAACAAGCUUUUCUUAUCCAACAGAGGAUUGAGCAUCA
# B7: chr7:4964383:4964384:-_ENSMUSG00000061374_ENSMUST00000077385|mus_mus|motif|central (ssRNA)
# RNA: GGGAGUUCUACAGUCCGACGAUCGCAUCGGUAGGGUCGUUCACCAGUGUGUGAGCGCAGGUGGUUAGCCAAGUUGAAGCGGUGCUUGAAGCCCUUACCGCAUCGAGGACAUGCGUGGGGCUUGAGAGCCGUGUGUCGAGCAAACAACAGAGGAUUGAGCAUCA
# B8: chr4:101285476:101285477:+_ENSMUSG00000028528_ENSMUST00000094953|mus_mus|motif|central (ssRNA)
# RNA: GGGAGUUCUACAGUCCGACGAUCGAGUGGCUUGAAGUGAGGGCGGUAGGGCUUAUCUGCAAGUAGGUCGCACAUGUAGCCGGAGUACCUCCUGUGAGACGGAGACAGUCCAAUUCCUGGUCGCUUUGCGUAGAGUAAUCGAACCAACAGAGGAUUGAGCAUCA
# B9: chr3:151883435:151883436:+_ENSMUSG00000028034_ENSMUST00000166984|mus_hu|motif|central (ssRNA)
# RNA: GGGAGUUCUACAGUCCGACGAUCCAUCUCUCCAUUUCUUCCUAUUACAAUGCCAACAGCAAAUCUUGGAAUGGGGACAUCGGUCCCUUCAUUUCCUCCUAUUCUUGACCCAUACUCAUUCCGAACUUCUCUGAAACCGCCUUGCAACAGAGGAUUGAGCAUCA
# B10: 115805245_115805365_753_3pUTR_ENSG00000185565_ENST00000490035|human|control|control (ssRNA)
# RNA: GGGAGUUCUACAGUCCGACGAUCCAUAGACAUCCACCUUCUGGAUUCGGAGGCUGUAUUCCAGAGAAUGGCGUUUCUCCAGCUCAACCCGUGGGUCCAGAGACCACUUGUCAUGUCCAGCAAAAAUGAUGCCAGAACGGUUCACAACAGAGGAUUGAGCAUCA
# B11: chr1:23637546:23637547:-_ENSG00000125944_ENST00000302271|hu_hu|FALSE|FALSE (ssRNA)
# RNA: GGGAGUUCUACAGUCCGACGAUCGUAGUAAUCUGGAGGGUAGCCAUAUCCACCUCUCCCCCCACCACGACCCCGACCUCUAAUUGGAGGUGGCAUGCGAGGAGGAGGGUGGUAGUAAUAAUCUUCAUACGCAGUGCUUCUGGACAACAGAGGAUUGAGCAUCA
# B12: chrX:17818885:17818886:+_ENSMUSG00000037369_ENSMUST00000044484|mus_mus|FALSE|FALSE (ssRNA)
# RNA: GGGAGUUCUACAGUCCGACGAUCAUACCAGGACUGGCCAGAAUUUGGAUCUGCUUCCAAGGACUUCUGGAGAUACUGAAUAGCAUAACUUUCCUUGGUGGCCUUAUCUCCCAGGAGAUCCACAGUGUGAUGCAUCCAACCUAACAACAGAGGAUUGAGCAUCA
# B13: chr10:77750680:77750681:-_ENSMUSG00000001211_ENSMUST00000139282|mus_mus|FALSE|FALSE (ssRNA)
# RNA: GGGAGUUCUACAGUCCGACGAUCACGGCGGUAUAGGUGCUUGCUGAUGGGCCAGAGGGCCAGUGUGCACAGCUGGGUGAAGUUGAUAAUUAACCCGCUCACCACGAAGACGAAGCCAAUGAGCAGGUGCACCACGAACUGGGUCAACAGAGGAUUGAGCAUCA
# B14: chr18:6437031:6437032:-_ENSMUSG00000024240_ENSMUST00000028100|mus_hu|FALSE|FALSE (ssRNA)
# RNA: GGGAGUUCUACAGUCCGACGAUCGCAGUACUGUACAGAUAAUUGCUGUAUUCUUAAUUUACAGAUGUUGAUUUUUUUCCUAUUAACAGUAAGAAAAGAAAAAUUGAAGCAUGAGAGAUGAGCAUUGCUGUCAAGUCCCCACAGCAACAGAGGAUUGAGCAUCA
# B15: chr16:20683585:20683586:+_ENSMUSG00000045983_ENSMUST00000044783|mus_hu|FALSE|FALSE (ssRNA)
# RNA: GGGAGUUCUACAGUCCGACGAUCUAUUGCCUCUGUUAACAUCUUCAGUUUGAACAACUCUCCAAUAAACUUGAUAUUCCCUAAAGAGCGCCGCCGGGCUAUGUCCCGAGCCUCUUCCAGCUCUUCCUUCAGGCGUCCUCGUUCCAACAGAGGAUUGAGCAUCA
# B16: 247014174_247014294_5197_CDS_ENSG00000153207_ENST00000391829|human|control|control (ssRNA)
# RNA: GGGAGUUCUACAGUCCGACGAUCGACCAAUUUAGUGGGACACAUUAUGUUUUGGCUCACUAAAGGUAUUGUUUCAUGAAUGGACUGUUCCAUUGUAUCUGAAGUAAUUUCUUUACUUCUUGUGUCUUUAAUUACAUCUAGUAACAACAGAGGAUUGAGCAUCA
# B17: 24016654_24036560_782_3pUTR_ENSMUSG00000024277_ENSMUST00000025127|mouse|control|control (ssRNA)
# RNA: GGGAGUUCUACAGUCCGACGAUCCGUUUCUAAAUCUUUGUCAGAUCUGGAUGCAGAGCCACUGGAUGAAGCCCUUUUGGCAGACGAGGGGCGAGAAGGUGUGGAUCCUGGCUUAGAUGCAGGACUUGACUUAGCCGCGCCUGCCAACAGAGGAUUGAGCAUCA
# B18: chr19:8913615:8913616:-_ENSMUSG00000071658_ENSMUST00000096259|mus_hu|mus_mus_mus_hu_False|48_88 (ssRNA)
# RNA: GGGAGUUCUACAGUCCGACGAUCAGGGUACCAAAACCUUCUGCCUGAGAUAGGUGCCCCACCCAGUAGGGAGUUGCAGCUGAAAGUAUCCGUAGCAGAAGCAGUGACUAUACGAAAGGAGGCCCCUGGGGAGGGCCAGGCCAGCAACAGAGGAUUGAGCAUCA
# B19: chr17:39847130:39847131:+_ENSG00000173812_ENST00000469257|hu_hu|motif|central (ssRNA)
# RNA: GGGAGUUCUACAGUCCGACGAUCGUUACAUUAUACAAGCUGUGAGGUUUUUAAACCUGUGACAAGGGAGAGAAGGGAAAUUCGGCUCAUUGCAAGGAAAUCCUCACUUAAGCUUCAGUGAGCCACAAGCACUUAAAACCCAUGCAACAGAGGAUUGAGCAUCA
# B20: chr13:100191535:100191536:-_ENSMUSG00000052727_ENSMUST00000064762|mus_hu|FALSE|FALSE (ssRNA)
# RNA: GGGAGUUCUACAGUCCGACGAUCAGAGGGGAUAUUGCACACAAAUAUCAUAAAAGCACUACAUAUUACUUUCACUGGAAACUAAUUUUCUACAUUAGAUAUGACUGGAUAGGAUAGAAGUGAUGCAGGAUUAUAAGACAUAAUCAACAGAGGAUUGAGCAUCA
# B21: chr10:61005148:61005149:+_ENSG00000165443_ENST00000486074|hu_mus|FALSE|FALSE (ssRNA)
# RNA: GGGAGUUCUACAGUCCGACGAUCGACAUCCUGGGCGUGGUGGUACACCAGCACCCCAUCUUCUUCUGUACAGGUCAAAAAAUUAUUAUCCUUGGAAUUUAGUUGAGGAAGGCGCUGCUUACAAAAUUCAUCUCCUGGUGAUCCCAACAGAGGAUUGAGCAUCA
# B22: chr2:53077437:53077438:+_ENSMUSG00000026960_ENSMUST00000028336|mus_mus|FALSE|FALSE (ssRNA)
# RNA: GGGAGUUCUACAGUCCGACGAUCACAUUUAAAGCUUAAUUAAUAACAACAAGAACCCUUGAUAUGACAAGUACAGUAUCUAUAAUAUAUUACAACAUACAUAUUACAGUUAAAUUAUAUGUACACAUACAGAGUAUCAAAAUACAACAGAGGAUUGAGCAUCA
# Target: T1, UNK ZnF1-3
# Assay: nsRBNS (natural sequence RNA bind-n-seq); RBNS binding buffer (assumed for nsRBNS): 25 mM Tris pH 7.5, 150 mM KCl, 3 mM MgCl2, 0.01% Triton X-100, 500 ug/ml BSA, 20 U/ml SUPERase-In, 4 C; UNK is unkempt and MSI1 is Musashi-1; names of the RNAs are library labels; protein concentration not given here; high values mean tight binding
row,Binder,binding signal [enrichment R]
1,B1,1.5
2,B2,0.374
3,B3,1.19
4,B4,0.692
5,B5,0.63
6,B6,0.635
7,B7,1.34
8,B8,0.864
9,B9,0.821
10,B10,0.723
11,B11,0.572
12,B12,1
13,B13,1.15
14,B14,1.63
15,B15,0.714
16,B16,0.318
17,B17,0.536
18,B18,1.56
19,B19,1.12
20,B20,0.924
21,B21,1.14
22,B22,1.17
